Reference: the RNAGym collection of RNA variant scans (doi:10.7554/elife.90254)
The source gives no read counts; variants with many changes may rest on few reads.

B1: LINE1-full (parent)
chain: UACGUAGGUGGUUUUCCCCUGAUAGUGCUAAGGGGGCCUGGAAGUUUGGACUGGGCAGAGCUCAACACAGCGUGGCAAAGUGGCUGUGGCUAGACUGCCUCUCUGGAUUCCUCGUCACUCAGCAGGGCAUCUCUGAGAGAAAUGCC

Variants of: B1
Assay: self-cleavage, relative activity (ratio to wild type); higher = more cleavage; in vitro, sequencing; the parent is a self-cleaving ribozyme
Variant UACGUAGGUGGUCUUCACCUGAUAGUGCUAAGGGGGCCUGGAAGUUUGGACUGGGUAGAGCUCAACACAGCGUGGCAAAGUGGCUGUGGCUAGACUGCCUCUCUGGAUUCCUCGUCACUCAGCAGGGCAUCCCUGAGAGAAAUGCC has a self-cleavage of 0.37.
For UACGUAGGUGGUCUUCCCCUGAUAGUGCUAAGGGGGCCUGGAAGUUUGGACUGGGCAGAGCUCAACACAGCGUGGCAAAGUGGCUGUGGCUUGACUGCCUCUCUGGAUUCCACGUCACUCAGCAGGGCAUCUCUGAGAGAAAUGCC, the self-cleavage was 1.2.
UACGUAGGUGGUCUUCUCCUGAUAGUGCUAAGGGGGCCUGGAAGUUUGGACUGGGCAGAGCUCAACACAGCGUGGCAAAGUGGCUGUGGCUUGACUGCCUCUCUGGAUUCCUCGUCACUCAGCAGGGCAUCUCUGGGAGAAAUGCC showed a self-cleavage of 0.66.
Variant UACGUAGGUGGUCUUCCCCUGAUAGUGCUAAGGGGGCCUGGAAGUUUGGACUGGGCAGAGCUCAACACAGCGUGGCAAAGUGGCUGUGGCUAGACUGCCUCUCUGGGUUCCUCGUCACUCAGCGGGGCAUCUCUGAGAGAAAUGCC has a self-cleavage of 1.84.
UACGUAGGUGGUCUUCCCCUGAUAGUGCUAAGGGGGCCUGGAAGUUUGGACUGGGCAGAGCUCAACACAGCGUGGCAAAGUGGCUGUGGCUAGGCUGCCUCUCUGGGUUCCUCGUCACUCAGCAGGGCAUCUCUGAGAGAAAUGCC showed a self-cleavage of 0.31.
With UACGUAGGUGGUCUUCCCAUGAUAGUGCUAAGGGGGCCUGGAAGUUUGGACUGGGCAGAGCUCAACCCAGCGUGGCAAAGUGGCGGUGGCUAGACUGCCUCUCUGGAUUCCUCGUCACUCAGCAGGGCAUCUCUAAGAGAAAUGCC the self-cleavage was 0.13.
In the case of UACGUAGGUGGUCUUCCCCUGAUAGUGCUAAGGGGGCCUGGAAGUUUGGACUGGGCAGAGCUCAACACAGCGUGGCAAAGUGGCUGUGGCUAGACUGCCUCUCUGGAUUCCUCGUCACUCAGCGGGGCAUCUCUGAGAGGAAUGCC, the self-cleavage is reported as 0.27.
Variant UACGUAGGUGGUCUUCCCCUGAUAGUGCUAAGGGGGCCUGGAAGUUUGGACUGGGCAGAGCUCAACACAGCGUGGCAAAGUGGCUGUGGCUAGACUGCCUCUCUGGAUUCCUCGUCACUCAGCAGGGCAUCUCUGUGAGAGACGCC has a self-cleavage of 1.62.
Variant UACGUAGGUGGUCUUCCCCUGAUAGUGCUAAGGGGGCCUGGAAGUUUGGACUGGGCAGAGCUCAACACAGCGUGGCAAAGUGGCUGUGGCUAGACUGCCUCUCUGGAUUCCUCGUCACUCUGCAGGGCAUCUCCGAGAGAAAUGCC has a self-cleavage of 1.53.
Work on UACGUAGGUGGUCUUCCCCUGAUAGUGCUAAGGGGGCCUGGAAGUUUGGACUGGGCAGAGCUCAACACAGCGUGGCAAAGUGGCUGUGGCUAGACUGCCUCUCUGGAUUCCUCGUCGCUCAGCAGGGCUUCUCUGAGAGAAAUGCC yielded a self-cleavage of 0.71.
UACGUAGGUGGUCUUCCCCUGAUAGUGCUAAGGGGGCCUGGAAGUUUGGACUGGGCAGAGCUCAACACAGCGUGGCAAGGUGGCUGUGGCUAGACUGCCUCUCUGGAUUCCUCGUCACUCUGCAGGGCAUCUCUGAGAGAAAUGCC showed a self-cleavage of 1.98.
UACGUAGGUGGUCUUCCCCUGAUAGUGCUAAGGGGGCCUGGAAGUUUGGACUGGGCAGAGCUCAACACAGCGUGGCAAAGUGGCUGUGGCUAGGCUGCCUCUCUGGAUUCCUCGCCACUCAGCAGGGCAUCUCUGAGAGAAAUGCC gave a self-cleavage of 0.
Variant UACGUAGGUGGUCUUCCACUGAUAGUGCUAAGGGGGCCUGGAAGUUUGGACUGGGCAGAGCUCAACGCAGCGUGGCGAAGUGGCUGUGGCUAGACUGCCUCUCUGGAUUCCUCGUCACUCAGCAGGGCAUCUCUGAGAGAGAUGCC has a self-cleavage of 0.44.
UACGUAGGUGGUCUUCCCCUGAUAGUGCUAAGGGGGCCUGGAAGUUUGGACUGGGCAGAGCUCAACACAGCGUGGCAAAGUGGCUGUGGCUAGACUGCCUCUCUGGAUUCCUCGUCACUCUGCAGGGCAUCCCUGAGAGAAAUGCC gave a self-cleavage of 1.28.
In the case of UACGUAGGUGGUCUUCACCUGAUAGUGCUAAGGGGGCCUGGAAGUUUGGACUGGGCAGAGCUCAACACAGCGAGGCAGAGUGGCUGUGGCUAGGCUGCCUCUCUGGAUUCCUCGUCACUCAGCAGGGCAUCUCUGAGAGAAAUGCC, the self-cleavage is reported as 0.15.
In the case of UACGUAGGUGGUCUUCCCCUGAUAGUGCUAAGGGGGCCUGGAAGUUUGGACUGGGCAGAGCUCAACACAGCGUGGCAAAGUGGCUGUGGCUGGACUGCCUCUCUGGAUUCCCCGUCACUCAGCAGGGCAUCUCUGAGAGAAAUGCC, the self-cleavage is reported as 0.16.
Variant UACGUAGGUGGUCUUCCCAUGAUAGUGCUAAGGGGGGCUGGAAGUUUGGACUGGGCAGAGCCCAACACAGCGUGGCAAAGUGGCUGUGGCUAGACUGCCUCUCUGGACUCCUCGUCACUCAGCAGGGCAUCUCUGAGAGAAAUGCC has a self-cleavage of 0.
In the case of UACGUAGGUGGUCUUCCCCUGAUAGUGCUAAGGGGGCCUGGAAGUUUGGACUGGGCAGAGCUCAACACAGCGUGGCAAAGUGGCUGUGGCUAGGCUGCCUCUCUGGAUUCCUCGUCACCCAGCAUGACAUCUCUGAGAGAAAUGCC, the self-cleavage is reported as 0.36.
For UACGUAGGUGGUCUUCCCCUGAUAGUGCUAAGGGGGCCUGGAAGUUUGGACUGGGCAGAGCUCAACACAGCGUGGCAAAGUGGCUGUGGCUAGACUGCCUCUCUGGGUUCCUGGUCACUCAGCAGGGCGUCUCUGAGAGAAAUGCC, the self-cleavage was 0.48.
In the case of UACGUAGGUGGUCUUCUCCUGAUAGUGCUAAGGGGGCCUGGAAGUUUGGACUGGGCAGAGCUCAACACAGCGUGGCAAAGUGGCUGUGGCUAAACUGCCUCUCUGGAUUCCUCGUCACUCAGCAGGGCAUCUCUGAGAGGAAUGCC, the self-cleavage is reported as 0.08.
